# Reference: PubChem BioAssay AID1347073 (National Center for Advancing Translational Sciences (NCATS), 2019)
# Hit rate of the full screen: of about 45,000 compounds, about 200 (0.44%) were called active. Roughly 7% stayed inconclusive and do not appear here. Calls come from the whole dose curve; as a rule, active = well fitted activation curve with a large enough effect; inconclusive = small, poorly fitted or top-dose-only effect; inactive = no such curve, though single readings can be large or run the other way. The list shows a part of the results.
# Assay: qHTS of TDP-43 Inhibitors: NCGC Sytravon Library Screen; note: 0% is about no effect; nearly all actives have a fitted effect of over 55% in size
# Conditions: yeast TDP-43 toxicity rescue, BacTiter-Glo growth, 24 h; series mostly up to 46.1 µM; growth rescue (activation): at the top concentration
# How it was run: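 TDP-43-expressing yeast, pregrown in raffinose, seeded at OD600 0.02 in galactose medium with compound for 24 hr at 30 deg C. Growth read by BacTiter-Glo luminescence, so rescue of toxicity appears as activation.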
row,Structure (SMILES),growth rescue (activation)
1,Cn1c2ccccc2c2nnc(SCC(=O)NC3CCCC3)nc21,inactive: 1.22%
2,Cc1nc2nc[nH]n2c(=O)c1CCOC(=O)c1ccccc1F,inactive: -4.54%
3,CC(=O)c1cccc(N2C(=O)CC(N3CCN(S(=O)(=O)c4ccccc4F)CC3)C2=O)c1 (centres undefined),inactive: 10.2%
4,CC(C)CNc1ncnc2c1sc1nc(N3CCOCC3)c3c(c12)CC(C)(C)OC3,inactive: 25.8%
5,CS(=O)(=O)c1cccc(C(=O)Nc2ccccc2Cc2ccccc2)c1,inactive: 15.3%
6,CCN(CC)CCCNC(=O)c1cc(-c2ccc3c(c2)OCO3)on1,inactive: -2.51%
7,O=C(c1ccco1)N1CCN(C(=O)c2cn(-c3ccccc3)nc2-c2ccc(F)cc2)CC1,inactive: 3.97%
8,CCC(C)NCC(=O)Nc1cc(S(=O)(=O)N(CC)c2ccccc2)ccc1Cl (centres undefined),inactive: 0.221%
9,COc1cc(C(=O)OCC(=O)Nc2ccc(C(C)=O)cc2)ccc1OCC(=O)N1CCOCC1,inactive: 14.2%
10,CCC1(CC)Nc2ccccc2C(=O)N1c1ccc(NC(C)=O)cc1,inactive: 8.01%
11,Cc1ccc(-c2csc(NC(=O)c3ccccc3Cl)c2C(=O)O)cc1,inactive: -24.3%
12,Cc1ccc2c(c1)C(c1ccc(F)cc1)N(C(=O)c1ccccc1Br)CC(=O)N2 (centres undefined),inactive: 7.17%
13,O=C(COC(=O)/C=C/c1ccccc1[N+](=O)[O-])Nc1ccc2[nH]c(=O)[nH]c2c1,inactive: 8.85%
14,Cc1ccc(-c2nnc(SCC(=O)N(C)C)nc2-c2ccc(C)cc2)cc1,inactive: 18%
15,CCOCCCNS(=O)(=O)c1ccc(NC(=O)CN2C(=O)c3ccccc3C2=O)cc1,inactive: -18.3%
16,CCc1nc2ccc(C(=O)N3CCN(C)CC3)cn2c1N(C)CCCc1ccccc1,inactive: 11.3%
17,CN(C)c1ccc(C(=S)N2CCN(C(=S)Nc3ccccc3)CC2)cc1,inactive: -3.89%
18,O=C(CNCc1ccccc1Cl)Nc1ccccc1N1CCCCC1,inactive: -3.73%
19,Cc1ccc(C)c(OCCn2cc(C(=O)O)c3ccccc32)c1,inactive: 16.8%
20,COc1ccc(CNc2nc3nc(C)c(Cl)c(C)n3n2)cc1,inactive: 37.6%
21,Cc1ccc(C(=O)N/N=C\c2cccc(OC(=O)c3cccc(F)c3)c2)cn1,inactive: 11.5%
22,CCOC(=O)C1(Cc2ccccc2)CCCN(Cc2ccc(OCC)c(CO)c2)C1 (centres undefined),inactive: -4.49%
23,COc1cc(/C=C2\SC(=N)N(c3ccc(F)cc3)C2=O)ccc1O,inactive: 0.6%
24,Cc1cc(=O)cc(C)n1-c1ccc(Cl)c(Cl)c1,inactive: 8.77%
25,Cc1ccc(NC(=O)N2CCc3cc(S(=O)(=O)N4CCC(C)CC4)ccc32)cc1C,inactive: -0.233%
26,CC1(C(=O)Nc2cccc3ccccc23)CCN1C(=O)C1(c2ccccc2)CCCC1 (centres undefined),inactive: 3.2%

row,Structure (SMILES),growth rescue (activation)
1,N=c1c2c(ncn1Cc1ccco1)Oc1ccc3ccccc3c1C2c1ccccc1 (centres undefined),inactive: 20.4%
2,CSc1nsc(SCC(=O)Nc2ccc(NC(C)=O)cc2)n1,inactive: -2.8%
3,FC(F)(F)c1cccc(N2CCN(CC3CC=CCC3)CC2)c1 (centres undefined),inactive: 7.2%
4,Cc1ccc(C(=O)NC(C(=O)NC2CCCC2)c2ccccc2)cc1 (centres undefined),inactive: 0.784%
5,O=C(Nc1cccc(NC(=O)c2cccs2)c1)c1cccnc1,inactive: 12.6%
6,CC(NS(=O)(=O)c1ccc(Br)cc1)C(=O)Nc1nc2ccccc2[nH]1 (centres undefined),inactive: -0.0658%
7,CCCCN(CC)S(=O)(=O)c1c(C)[nH]c(=O)[nH]c1=O,inactive: 6.91%
8,O=C(CO/N=C/c1ccccc1OC(F)F)NC1CCCCC1,inactive: 12.7%
9,Cc1cccc(N2CC(C)Cn3c2nc2c3c(=O)n(CC(=O)OCc3ccccc3)c(=O)n2C)c1 (centres undefined),inactive: -0.85%
10,O=S(=O)(Nc1nc2ccc(Cl)cc2s1)c1cccs1,inactive: 8.02%
11,Cc1sc2ncn(CC(=O)Nc3c(F)cccc3F)c(=O)c2c1S(=O)(=O)N1CCC(C)CC1,inactive: 3.49%
12,CCCCC(=O)NC(c1ccc(Cl)cc1)c1ccc2cccnc2c1O (centres undefined),inactive: 28.8%
13,Cc1ccc(C(=O)C[n+]2cc(Br)cc(Br)c2)cc1,inactive: 18.8%
14,Cc1cc(C)c(S(=O)(=O)/N=C2/C=C(Sc3ncn[nH]3)C(=O)c3ccccc32)cc1C,inactive: -93.9%
15,Cc1cc2c(=O)n(C)c(SCC(=O)NCC3CCCO3)nc2s1 (centres undefined),inactive: 7.55%
16,Cn1cc(/C=C/c2nc3ccccc3c(=O)n2-c2cccc([N+](=O)[O-])c2)c2ccccc21,inactive: -7.7%
17,OC[C@@H]1CN(Cc2ccco2)C[C@H](n2cnc3c(N4CCOCC4)ncnc32)O1,inactive: 19.7%
18,CC(=O)Nc1ccc(S(=O)(=O)N2CC3(C)CC2CC(C)(C)C3)cc1 (centres undefined),inactive: 10.2%
19,CCc1cc(=O)oc2c3c(cc(OCC(=O)N[C@H](C(=O)O)[C@H](C)CC)c12)OC(C)(C)CC3,inactive: -4.32%
20,Cc1ccc(CN2CCNC(=O)C2CC(=O)N(C)C2CCCCC2)cc1 (centres undefined),inactive: -7.94%
21,O=C(NCC(c1cccnc1)N1CCN(c2ccc(F)cc2)CC1)c1ccccc1 (centres undefined),inactive: -6.09%
22,Cc1[nH]c(=O)c(C#N)c(C)c1CCC(=O)NCc1ccc(Cl)cc1,inactive: 4.66%
23,O=C(c1ccc([N+](=O)[O-])s1)N1CCN(c2ccc(C(F)(F)F)cn2)CC1,inactive: -1.36%
24,CC1=Nc2ccccc2/C1=C/c1c(N)n2c(S(=O)(=O)CC(C)C)nsc2nc1=O,inactive: 15.3%
25,O=C(CSc1cccc[n+]1[O-])Nc1ccc2c(c1)OCCO2,inactive: -6.8%
26,CC(C)OCCCN1CC(=O)N2C(c3ccccc3)c3[nH]c4ccccc4c3C[C@H]2C1=O (some centres undefined),inactive: 18.3%

row,Structure (SMILES),growth rescue (activation)
1,CN(CC(=O)NC1CCCCCC1)S(=O)(=O)c1cnc[nH]1,inactive: -3.93%
2,Cc1nn(C(C)C)c(C)c1[C@@H]1C[C@H]2CN(Cc3cccc(Cl)c3)C(=O)[C@]23CCCN13,inactive: 29.5%
3,COc1cccc(C(=O)OCCNC(=O)c2cccnc2)c1,inactive: 11.9%
4,O=C1CC(C(=O)Nc2cccc(F)c2)n2c(nc3ccccc32)N1 (centres undefined),inactive: -18%
5,COc1ccccc1C(=O)N/C(=N/c1nc(C)cc(C)n1)Nc1ccccc1,inactive: 21.7%
6,COc1ccc(NS(=O)(=O)c2cc(NC(=O)c3cnccn3)ccc2OC)cc1Br,inactive: -14%
7,O=C(Nc1ccc(N2C(=O)C3CCCCC3C2=O)cc1Cl)c1cccs1 (centres undefined),inactive: 10.2%
8,CC(=O)Nc1ccc2c(c1)NC(=O)CC2,inactive: -15.1%
9,O=C(N/N=C/c1ccncc1)c1cc(-c2ccc(Br)s2)[nH]n1,inactive: -18.5%
10,CCC1CSC(Nc2ccc(C(=O)/C=C/c3ccc(Br)cc3)cc2)=N1 (centres undefined),inactive: 22.9%
11,Cc1cc(NC(=O)CCC(=O)N(CC(=O)NC2CCCC2)c2ccc(Cl)cc2)no1,inactive: 8.25%
12,O=C(NNC(=O)c1cnccn1)c1ccc(Cl)cc1,inactive: 1.41%
13,CCCCNC(=O)N(O)C1N(/N=C/c2cccs2)C(=S)SC1(C)C (centres undefined),inactive: 2.11%
14,COc1cccc(C(=O)C2CCCN(Cc3cn(CC(N)=O)c4ccccc34)C2)c1 (centres undefined),inactive: -5.81%
15,C/C(=N\NC(=O)c1ccc(CSc2nncn2C)cc1)c1cccs1,inactive: 6.92%
16,O=C(Nc1ccc(Br)cn1)c1cccc(C(=O)Nc2ccc(Br)cn2)c1,inactive: 18%
17,O=C(O)/C=C/C(=O)N1CCN(S(=O)(=O)c2cc(C(F)(F)F)ccc2Cl)CC1,inactive: 3.82%
18,O=S(=O)(Nc1ccccc1N1CCOCC1)c1cccs1,inactive: 35.1%
19,CCCCN(C)CCC(=O)Nc1ccc(F)c(F)c1,inactive: 20%
20,CCOC(=O)c1c(C)[nH]sc1=S,inactive: 22.6%
21,Cc1cccc(NC(=O)/C=C/c2ccc3c(c2)OCO3)n1,inactive: 4.22%
22,Cc1cccc(NC(=S)NC2CCN(Cc3ccccc3)CC2)c1C,inactive: -14.9%
23,COc1ccc(CCc2nnc(CCC(=O)N(C)Cc3ccnc4ccccc34)o2)cc1,inactive: 3.05%
24,CC1=CN2C(=N)/C(=C/c3ccc([N+](=O)[O-])o3)C(=O)N=C2S1,inactive: -93.5%
25,O=C(COc1ccc(Br)cc1F)N1CCN(c2ncccn2)CC1,inactive: 22.7%
26,O=C(NCCN1CCN(C(=O)c2cccc(Br)c2)CC1)C(=O)Nc1ccc(Br)cc1,inactive: 2.34%

row,Structure (SMILES),growth rescue (activation)
1,O=C1CN(C(=O)CNCc2ccccc2)c2ccccc2N1,inactive: -18.3%
2,Cc1cc2ccccn2c1C(=O)c1ccc([N+](=O)[O-])cc1[N+](=O)[O-],inactive: -2.43%
3,Cc1csc(=Nc2c(C)n(C)n(-c3ccccc3)c2=O)n1Cc1ccccc1,inactive: 5.02%
4,CC(=O)Oc1ccc(C(=O)Nc2cc(NC(=O)c3ccc(OC(C)=O)cc3)cc(C(=O)NC(C)(C)C)c2)cc1,inactive: 7.98%
5,CC1CCN(C(=O)CC(NC(N)=O)c2ccccc2Cl)CC1 (centres undefined),inactive: -14.4%
6,CCN(CC)c1ccc(/C=N/NC(=O)Cc2ccc(OC)c(OC)c2)cc1,inactive: 6.91%
7,Cc1[nH]c(=O)[nH]c(=O)c1NS(=O)(=O)c1ccccc1,inactive: -8.14%
8,CC(C(=O)Nc1cc([N+](=O)[O-])ccc1Cl)N1CCN(c2ccccc2)CC1 (centres undefined),inactive: -8.53%
9,Nc1nc(NCCO)nc(NCc2ccccc2)c1[N+](=O)[O-],inactive: -0.418%
10,CCOc1ccc(C2C3=C(CCCC3=O)N(CC(=O)O)C3=C2C(=O)CCC3)cc1,inactive: 5.67%
11,COc1cccc(-c2cnc(C(O)c3cc(Cl)cc(Cl)c3)[nH]2)c1 (centres undefined),inactive: -0.257%
12,NS(=O)(=O)c1ccc(CNC(=O)c2cccc(Oc3ccccc3)c2)cc1,inactive: -21.7%
13,CCOc1ccc(CC2S/C(=N/N=C/c3ccco3)NC2=O)cc1 (centres undefined),inactive: -7.64%
14,CCc1ccc(-c2csc3ncn(CC(=O)NCc4ccco4)c(=O)c23)cc1,inactive: 9.68%
15,O=C(OCc1cccc([N+](=O)[O-])c1)c1cccnc1Cl,inactive: 13.6%
16,COP(C)(=O)c1c(C)nn(-c2ccccc2)c1C (centres undefined),inactive: -8.3%
17,CCOc1cc(NC(=O)C2CC2)c(OCC)cc1NC(=O)c1ccccc1OCC,inactive: 23.6%
18,CC1(C(=O)NS(=O)(=O)c2cccc(F)c2)CCN1C(=O)C/C=C/c1ccccc1 (centres undefined),inactive: -8.4%
19,COc1ccc(CNC(=O)C2CCCN(C(=O)Nc3ccc(OC)cc3)C2)cc1 (centres undefined),inactive: 9.27%
20,COc1cc(OC)c(NC(=O)NC(C)c2c(-n3cccc3)sc(C)c2C)cc1Cl (centres undefined),inactive: 3.94%
21,COc1ccc(NC(=O)C2CCC(CNS(=O)(=O)c3cccs3)CC2)cc1 (centres undefined),inactive: -7.32%
22,O=C(Nc1ccccc1-c1nnn(CC(=O)N2CCOCC2)n1)c1ccc(F)cc1,inactive: -2.6%
23,Fc1ccc(NC(=S)N2CCCCC2)cc1,inactive: 22.9%
24,CCc1nnc(N2CCN(c3ncnc4c3oc3ccccc34)CC2)s1,inactive: -4.11%
25,CCOc1ccc(N(CC(=O)Nc2ccc(OC)cc2)S(=O)(=O)c2c(C)[nH]c(=O)[nH]c2=O)cc1,inactive: -7.4%
26,COc1ccc(C(=O)Nn2cnnc2)cc1OC,inactive: -5.96%
